According to article PMC7819943, “Rice protein-binding microarrays: a tool to detect cis-acting elements near promoter regions in rice”:
The list shows a part of the results.

molecular target: T1, OsWOX13 (Oryza sativa, UniProt Q5QMM3 1-267); test: protein-binding microarray (RPBM); PBS, 2% BSA, 51.3 ng/ul salmon testes DNA, 50 uM zinc acetate, 200 nM TF, 25 C, 1 h; high values mean tight binding; conditions: protein: recombinant; tags: N-terminal polyhistidine and DsRed monomer fusion (pET32a); label: CyDye5-dUTP incorporated in the synthesized complementary strand; 3' TTTTT single-stranded linker to array surface; dsDNA, one strand shown
T1 sequence: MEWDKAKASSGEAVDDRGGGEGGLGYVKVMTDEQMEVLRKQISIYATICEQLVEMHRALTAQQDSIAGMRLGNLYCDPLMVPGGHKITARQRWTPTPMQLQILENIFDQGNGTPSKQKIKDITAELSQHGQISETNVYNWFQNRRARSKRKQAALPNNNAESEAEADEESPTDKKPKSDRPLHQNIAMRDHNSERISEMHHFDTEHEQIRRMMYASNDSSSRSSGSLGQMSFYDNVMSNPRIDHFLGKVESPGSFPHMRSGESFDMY
Procedure, shortened: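 Transcription factors were each fused at the N-terminus to a polyhistidine tag plus DsRed and expressed in E. coli BL21-CodonPlus before Ni–NTA purification. Binding to a double-stranded custom Agilent array was carried out with 200 nM protein at 25 °C for 1 h in PBS, 2% BSA, salmon testes DNA and 50 µM zinc acetate. The binding signal is per-feature fluorescence intensity, in arbitrary units, on an Axon 4000B scanner.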

Sequence | binding signal
TAAACTGTAATTATAGTCTTGTAGAACTAGCCAATAGTTACGGAGTCACCTAGTGCAG | 10800 fluorescence intensity (a.u.)
CAATCACATTTTATGATTTTATCACAAGATTTTGTAGTAGCGGAGTCACCTAGTGCAG | 4190 fluorescence intensity (a.u.)
TAGAGAATTGATTGGGCTTTTGGTTGACTTCTTTGACACGCGGAGTCACCTAGTGCAG | 40200 fluorescence intensity (a.u.)
GAGTAATTTATTAGCACAAACATTAACAGTGTTCATAGCGCGGAGTCACCTAGTGCAG | 20300 fluorescence intensity (a.u.)
GAGATTTAATAGAATAAATTGGGCCTAGCCCAATTATTCTCGGAGTCACCTAGTGCAG | 3970 fluorescence intensity (a.u.)
CAAGTGAAAGTTGATTGACCTAAGATTTCACGAGTTTGACCGGAGTCACCTAGTGCAG | 22200 fluorescence intensity (a.u.)
GGTGTGATGGAAAAGTTGAAAGTATTATGTTTTGGAACCTCGGAGTCACCTAGTGCAG | 6430 fluorescence intensity (a.u.)
CAGGGCATAATTAATATATACCTACCAAAGCAGTAACTTCCGGAGTCACCTAGTGCAG | 5200 fluorescence intensity (a.u.)
CATCAATCATTAATGGTTGCGACCAGTTACTCCCTCTGTCCGGAGTCACCTAGTGCAG | 45500 fluorescence intensity (a.u.)
TGGTACAGATCTGTTAGTAAATTTACATGCCCTAATATTACGGAGTCACCTAGTGCAG | 3340 fluorescence intensity (a.u.)
ATGAAATTTGTTAGTTGATGTGCACGGTATGTATATGATACGGAGTCACCTAGTGCAG | 7600 fluorescence intensity (a.u.)
TAAAATAAATTATAGATTTTGCCTGTAAACTGCGAAACGACGGAGTCACCTAGTGCAG | 9990 fluorescence intensity (a.u.)
GTAACAATTAAATCTTTATAACAAGATCTCACATGATTATCGGAGTCACCTAGTGCAG | 4580 fluorescence intensity (a.u.)
GCGTAAACGTGACATAAAATGCACAAATGGGAAGTCTTTGCGGAGTCACCTAGTGCAG | 3260 fluorescence intensity (a.u.)
GCTAATTATACCACTCGAGCCATTGGTTTCGGCAACAATTCGGAGTCACCTAGTGCAG | 19700 fluorescence intensity (a.u.)
TCTCGTTGATTTCTTTTCCCTTTGCCAGCTTTCGCTTTTCCGGAGTCACCTAGTGCAG | 9170 fluorescence intensity (a.u.)
TTTTAAAACTGATTTATAATCAAAGGTTCTAATGTTTGACCGGAGTCACCTAGTGCAG | 24900 fluorescence intensity (a.u.)
TCGCTCTGATTTGATTTTGGAAATGGTGGTAAAGCTAATGCGGAGTCACCTAGTGCAG | 32300 fluorescence intensity (a.u.)
CAGACCAATCAGTGCACGCAGAGCTTCTTCTTCCTTCTTCCGGAGTCACCTAGTGCAG | 6430 fluorescence intensity (a.u.)
ACTACAATAGATTAGCTGTAAAATATCAGAGATTAATGCACGGAGTCACCTAGTGCAG | 8560 fluorescence intensity (a.u.)
TTCAATTGATATAGACACAGATCTATGTGATTCACTGACACGGAGTCACCTAGTGCAG | 21700 fluorescence intensity (a.u.)

Sequence | binding signal
AATGCAATTTGCAATAATTATATCAGTGCCAAATCCCATGCGGAGTCACCTAGTGCAG | 16200 fluorescence intensity (a.u.)
AGTTACAGTGTAATTTATGAAACTTACACTGTAACTTTTGCGGAGTCACCTAGTGCAG | 5490 fluorescence intensity (a.u.)
GTTTTGTGATTGAGGGATGTTATTCGACAAAAGGCAAGAGCGGAGTCACCTAGTGCAG | 29600 fluorescence intensity (a.u.)
TCTAAATCATTTTAATCATGGTACAGATCTACTGATAATACGGAGTCACCTAGTGCAG | 7740 fluorescence intensity (a.u.)
CTCCCGCTAATTTGCTCATCCGACCAGCCAAACTGTCGCCCGGAGTCACCTAGTGCAG | 23600 fluorescence intensity (a.u.)
ATCTAAATGAAAATCTAGACTATTTGGGACAGCTGGGAGACGGAGTCACCTAGTGCAG | 6090 fluorescence intensity (a.u.)
CGCTCCCAATTGACACCTTGAATTTATTTTGTCAGGATTGCGGAGTCACCTAGTGCAG | 15700 fluorescence intensity (a.u.)
ATCGTTAATAGACACATGAGGGTCCGCATGTTATAGATAGCGGAGTCACCTAGTGCAG | 12100 fluorescence intensity (a.u.)
TTATTTGATGATGATTTAATATCAGAATTAAGTAGGCCGTCGGAGTCACCTAGTGCAG | 27700 fluorescence intensity (a.u.)
GAAATTAAACTAATATTTCGGCCCATCAAGGGCTCGCTTGCGGAGTCACCTAGTGCAG | 8580 fluorescence intensity (a.u.)
GAGCTACTAGATTGGCTATAGATGAACTGGAGCTAGTAGTCGGAGTCACCTAGTGCAG | 16100 fluorescence intensity (a.u.)
GCCTTACTCACGGTGATTAGTTTAACCCCATCCTTTGGTTCGGAGTCACCTAGTGCAG | 9330 fluorescence intensity (a.u.)
GCTATATTCAAATTAATGAAATTTCATCTAGTATTCTCTACGGAGTCACCTAGTGCAG | 8200 fluorescence intensity (a.u.)
GGTAATTTCGCAATAACACCCAACCCAGCGATCTCCCCGGCGGAGTCACCTAGTGCAG | 8880 fluorescence intensity (a.u.)
ATATTACAAGTATATAATTATATGGAAGCAATTTTGTTGACGGAGTCACCTAGTGCAG | 3460 fluorescence intensity (a.u.)
GGTGCAGGAGGAGGAGGGGAAAGAGCGGCGGGGAGAAGTTCGGAGTCACCTAGTGCAG | 4920 fluorescence intensity (a.u.)
TTAAGTTAGAAACTGTAATTAATTTCGTTGCTGCGACGGTCGGAGTCACCTAGTGCAG | 6310 fluorescence intensity (a.u.)
TAATTAATTGATTAATGACTAAACTTGGCCATCAACCGCTCGGAGTCACCTAGTGCAG | 64800 fluorescence intensity (a.u.)
AAGTGATAGACAGTGAATCGAGGAAGATGGGTTGAGCCCACGGAGTCACCTAGTGCAG | 23200 fluorescence intensity (a.u.)
CCTTAATTAATACTTCCTTCGGAACATTGTTTTGAGATGGCGGAGTCACCTAGTGCAG | 48500 fluorescence intensity (a.u.)
GTGATTTGGTGATTGTATGGGGACTACTATTTAACGCACTCGGAGTCACCTAGTGCAG | 29300 fluorescence intensity (a.u.)
